Results: PubChem BioAssay AID504466 (National Center for Advancing Translational Sciences (NCATS), 2011)
The campaign covered roughly 330,000 compounds. About 4,200 (1.3%) were called active. The inconclusive results got no clear call from the source; some entries with a clear call stand among them for comparison. Calls follow the shape of the dose curve; as a rule, active = well fitted activation curve with a large enough effect; inconclusive = small, poorly fitted or top-dose-only effect; inactive = no such curve, though single readings can be large or run the other way. Potencies beside an inconclusive call are fits to weak or partial responses and may not hold up.

Assay: qHTS screen for small molecules that induce genotoxicity in human embryonic kidney (HEK293T) cells expressing luciferase-tagged ELG1; also: nearly all actives have a fitted effect of over 60% in size
Details: HEK293T ELG1-luciferase reporter, luminescence, 16 h; series mostly up to 46 µM
Method in brief: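 HEK293T cells expressing luciferase-tagged ELG1 were treated with compound or DMSO for 16 hr at 37°C. Luciferase activity was then read after 30 min with ONE-Glo at room temperature; rising signal flags genetic stress.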
Potency is read from the fitted curve at half-maximal effect; tags tell the direction and shape of the fitted curve.

Compound | Potency
Cn1ccsc1=NC(=O)c1ccc(Cl)cc1 | inconclusive: 18.3 µM [activator, partial curve]
CCCc1cc(C(=O)Nc2cc(Cl)ccc2O)no1 | active: 16.4 µM
CC(C)NC(=O)c1cc(-c2ccco2)on1 | inconclusive: 16.4 µM [activator, partial curve, poor fit]
CC1CCCN(c2oc(-c3cccc4ccccc34)nc2C#N)C1 (stereo unspecified) | inconclusive: 7.31 µM [activator, single point]
O=S(=O)(N(Cc1ccccc1)[C@@H](CO)Cc1ccccc1)N(Cc1ccccc1)[C@@H](CO)Cc1ccccc1 | inactive
CC(=O)c1ccc(NC(=O)Cn2c3ccccc3c3nc(=O)cc(C)n32)cc1 | inactive
COc1ccc(Cc2c(O)nc(SCC(=O)c3ccc(OC)cc3)[nH]c2=O)cc1 | inconclusive: 29.1 µM [activator, single point]
C/C(=N\OC(=O)c1ccccc1)c1cc(-c2ccc(Cl)cc2)no1 | inconclusive: 9.2 µM [activator, partial curve]
Cc1nc(SCC(=O)Nc2cc(C)on2)c2c3c(sc2n1)CCCC3 | inconclusive: 29.1 µM [activator, partial curve, poor fit]
CCOC(=O)c1sc(N2C(=O)C(O)=C(C(=O)c3ccco3)C2c2cccc([N+](=O)[O-])c2)nc1C (stereo unspecified) | inconclusive: 1.03 µM [activator, single point]
COC(=O)c1sc(NC(=O)/C=C/c2ccccc2Cl)nc1C | inactive
CCCCS/C(N)=N/N=C/c1ccccc1O | inconclusive: 13 µM [activator, partial curve, poor fit]
Oc1ccc(F)cc1-c1cc(-c2ccc3c(c2)OCCO3)n[nH]1 | inconclusive: 2.06 µM [activator, partial curve]
CSc1cccc(NC(=O)c2ccc(CN3CCc4ccccc4C3)cc2)c1 | inactive
CN(C)c1ccc(-c2nc3ccccn3c2/N=C/c2ccc(Br)cc2)cc1 | inconclusive: 2.06 µM [activator, partial curve]
COc1ccc(-n2nnc3c(SCC(=O)c4ccccc4)ncnc32)cc1 | inactive
O=C(Nc1ccc(S(=O)(=O)Nc2ncccn2)cc1)c1cccc(S(=O)(=O)N2CCCC2)c1 | inactive
CCOC(=O)C1CCN(S(=O)(=O)c2csc(C(N)=O)c2)CC1 | inactive
COc1cccc(C(=O)Nc2ccc(Cl)c(C(F)(F)F)c2)c1 | inactive
Cc1ccc(NC(=O)C(c2ccccc2)N2CCN(CC(=O)NC3CC3)CC2)cc1 (stereo unspecified) | inactive
COc1ccc(C(=O)COc2ccc(NC(C)=O)cc2)cc1 | inconclusive: 16.4 µM [activator, partial curve, poor fit]
